The target in this assay is T1, recombinant human MUC1-SEA (MUC1 antigen, Acrobiosystems, Cat: MU1-H52H9) (human), P15941.
T1 chain: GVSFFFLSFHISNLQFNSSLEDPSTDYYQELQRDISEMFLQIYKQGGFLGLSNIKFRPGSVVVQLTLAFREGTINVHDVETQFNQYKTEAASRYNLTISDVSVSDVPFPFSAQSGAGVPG
Put plainly: SPR, single cycle kinetics; MUC1 antigen captured on anti-His CM5 chip. Background: In SPR one partner is held on a chip, and binding of the other changes the refractive index at the surface.

B1: HM5LM4-ADC (humanized IgG anti-MUC1-SEA mAb conjugated to MC-Val-Cit-PABC-MMAE) (antibody)
heavy: EIQLVQSGAEVKKPGSSVKVSCKVTGHSITRGSSWHWMRQAPGQGLEWIGYIHYGGGTSYNPSLKSRITITRDTSTNTFYMELSSLRSEDTAFYFCARYSYDITYRWFFDVWGQGTLVTVSSASTKGPSVFPLAPSSKSTSGGTAALGCLVKDYFPEPVTVSWNSGALTSGVHTFPAVLQSSGLYSLSSVVTVPSSSLGTQTYICNVNHKPSNTKVDKRV[gap - human IgG1 Fc]
light: DIQMTQSPSTLSASVGDRVTITCRASQNIGTSIHWYQQKPGKAPKLLIKYASESISGVPSRFSGSGSGTEFTLTISSLQPDDFATYYCQQNNNWPLTFGQGTKVEIKRTVAAPSVFIFPPSDEQLKSGTASVVCLLNNFYPREAKVQWKVDNALQSGNSQESVTEQDSKDSTYSLSSTLTLSKADYEKHKVYACEVTHQGLSSPVTKSFNRGEC
modifications: not checked
What is called Kd is the concentration at which binding is half-saturated. Take B1: the Kd was found to be 0.0406 nM.

Source of the values: patent US20250041437A1, “HUMANIZED MUC1 ANTIBODY AND ANTIBODY DRUG CONJUGATE” (Sun Pharma Advanced Research Company Limited, priority 2023, published 2025).
